Data as given in publication PMC9600267, “The Antibacterial Type VII Secretion System of Bacillus subtilis: Structure and Interactions of the Pseudokinase YukC/EssB” (mBio, 2022).
Results are given in words; binding and its absence hold for the method and conditions named. Some results given as binding are weak or reduced against the parent protein; the word gives no strength. For some of these results: Sequences can lack the tags named with a protein.

The chains behind the UniProt entries cited, without tags or fusion partners. Residues count along the entry.
UniProt P42296, residues 1-97: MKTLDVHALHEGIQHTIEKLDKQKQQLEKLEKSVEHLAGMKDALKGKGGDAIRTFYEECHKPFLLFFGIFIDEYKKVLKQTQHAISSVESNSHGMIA

What was measured:
Experiment in all cases: two-hybrid; bacterial two-hybrid (BACTH) in E. coli BTH101; T25 (pKT25/pKNT25) and T18 (pUT18/pUT18C) fusions; spots on LB with X-Gal and IPTG, 25°C, imaged after 48 h
[1] = target: YxiD N-terminal 97-amino-acid region (YxiDN), bacterial two-hybrid fusion (Bacillus subtilis 168) (UniProt P42296)
[2] = target: T1, YukC (full length), bacterial two-hybrid fusion (Bacillus subtilis 168) (UniProt P71070)
T1 sequence: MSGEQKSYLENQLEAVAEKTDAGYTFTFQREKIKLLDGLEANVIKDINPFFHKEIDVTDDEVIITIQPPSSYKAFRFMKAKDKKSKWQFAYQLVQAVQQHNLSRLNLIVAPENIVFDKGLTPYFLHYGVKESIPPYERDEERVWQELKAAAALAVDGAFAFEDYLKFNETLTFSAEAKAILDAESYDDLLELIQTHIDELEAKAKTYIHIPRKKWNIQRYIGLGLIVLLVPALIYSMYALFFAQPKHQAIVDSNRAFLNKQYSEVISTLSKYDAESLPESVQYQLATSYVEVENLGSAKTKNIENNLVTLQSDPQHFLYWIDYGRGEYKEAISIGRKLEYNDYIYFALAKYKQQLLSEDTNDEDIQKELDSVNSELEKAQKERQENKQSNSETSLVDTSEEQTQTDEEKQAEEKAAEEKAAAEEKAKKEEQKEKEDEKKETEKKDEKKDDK

[3] = target: T2, YukB, bacterial two-hybrid fusion (Bacillus subtilis 168) (UniProt C0SPA7)
T2 sequence: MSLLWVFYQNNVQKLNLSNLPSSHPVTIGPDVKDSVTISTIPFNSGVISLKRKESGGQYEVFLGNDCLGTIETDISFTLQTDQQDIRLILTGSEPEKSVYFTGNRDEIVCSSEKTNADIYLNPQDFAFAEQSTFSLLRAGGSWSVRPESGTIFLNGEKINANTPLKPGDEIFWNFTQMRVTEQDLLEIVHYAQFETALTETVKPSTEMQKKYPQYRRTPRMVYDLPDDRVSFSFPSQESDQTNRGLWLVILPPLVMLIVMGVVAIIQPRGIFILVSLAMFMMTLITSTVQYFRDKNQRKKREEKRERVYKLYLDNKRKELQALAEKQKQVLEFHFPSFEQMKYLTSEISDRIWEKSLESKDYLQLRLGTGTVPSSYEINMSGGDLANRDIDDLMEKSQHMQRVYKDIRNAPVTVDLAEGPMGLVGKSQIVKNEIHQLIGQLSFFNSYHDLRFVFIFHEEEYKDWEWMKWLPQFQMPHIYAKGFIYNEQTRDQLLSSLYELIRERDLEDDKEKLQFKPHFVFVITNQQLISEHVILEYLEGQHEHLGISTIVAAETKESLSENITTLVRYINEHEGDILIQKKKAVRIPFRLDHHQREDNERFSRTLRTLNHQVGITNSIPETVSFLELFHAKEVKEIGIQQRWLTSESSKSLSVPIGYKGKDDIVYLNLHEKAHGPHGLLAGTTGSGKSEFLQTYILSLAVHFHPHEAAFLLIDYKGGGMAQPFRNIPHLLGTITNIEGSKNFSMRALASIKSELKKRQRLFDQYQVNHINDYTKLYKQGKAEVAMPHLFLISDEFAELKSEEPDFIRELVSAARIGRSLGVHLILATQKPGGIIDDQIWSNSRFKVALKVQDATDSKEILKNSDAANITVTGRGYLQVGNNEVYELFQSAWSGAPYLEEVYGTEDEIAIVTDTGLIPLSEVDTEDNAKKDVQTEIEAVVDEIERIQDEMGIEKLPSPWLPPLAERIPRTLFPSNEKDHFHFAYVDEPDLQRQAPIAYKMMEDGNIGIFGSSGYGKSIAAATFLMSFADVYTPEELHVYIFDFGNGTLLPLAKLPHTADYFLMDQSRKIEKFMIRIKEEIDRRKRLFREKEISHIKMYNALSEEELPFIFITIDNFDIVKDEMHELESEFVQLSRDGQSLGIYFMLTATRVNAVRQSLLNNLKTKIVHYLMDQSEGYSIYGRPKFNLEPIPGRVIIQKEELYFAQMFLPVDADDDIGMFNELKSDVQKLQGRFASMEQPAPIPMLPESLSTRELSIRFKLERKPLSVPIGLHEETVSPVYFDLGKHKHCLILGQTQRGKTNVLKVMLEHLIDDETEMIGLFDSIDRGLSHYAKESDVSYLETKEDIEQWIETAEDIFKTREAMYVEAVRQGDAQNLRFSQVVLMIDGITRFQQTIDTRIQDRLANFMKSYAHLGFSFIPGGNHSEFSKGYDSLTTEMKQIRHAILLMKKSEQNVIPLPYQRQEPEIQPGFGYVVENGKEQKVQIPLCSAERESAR

[4] = target: T3, YukE, bacterial two-hybrid fusion (Bacillus subtilis 168) (UniProt C0SP85)
T3 sequence: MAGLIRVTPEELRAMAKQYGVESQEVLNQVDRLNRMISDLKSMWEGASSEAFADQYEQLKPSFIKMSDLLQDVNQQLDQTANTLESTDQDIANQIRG

With “YxiD N-terminal 97-amino-acid region (YxiDN), bacterial two-hybrid fusion (from UniProt P42296 1-97) (domain or fragment)” as the substance, how does the binding [1] read?
The binding was “binds”.

What about the binding [2] of the same substance?
Its binding is “binds”.

What about the binding [3] of the same substance?
Its binding is “no binding”.

What about the binding [4] of the same substance?
Its binding is “binds”.
